Data reported in PubChem BioAssay AID1963576 (National Center for Advancing Translational Sciences (NCATS), 2024).
In all, about 46,000 compounds went through this assay and about 60 (0.1%) were called active. Roughly 3% stayed inconclusive and do not appear here. Calls follow the shape of the dose curve; as a rule, active = well fitted inhibition curve with a large enough effect; inconclusive = small, poorly fitted or top-dose-only effect; inactive = no such curve, though single readings can be large or run the other way. Some of the results follow.

assay: Primary qHTS assay for Inhibitors of ovarian cancer metastasis using an organotypic tumor microenvironment (TME) model.; also: nearly all actives have a fitted effect of over 65% in size;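 as to activity change, negative = inhibition: plate controls were DMSO wells for no effect and tomatine positive control wells for full effect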; conditions: SKOV3ip1-GFP adhesion/invasion on 3D omental model, fluorescence; series mostly up to 45.8 µM; activity change, negative = inhibition: at the top concentration
Procedure, shortened: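 qHTS, 4-pt dose (0.36-46 umol/L); SKOV3ip1-GFP, 1,200 cells/well, no FBS; primary omental fibroblast/mesothelial co-culture 48 h pre-grown; 2 h RT + 16 h 37 C; PBS wash, 4% PFA; GFP count 488/509 nm.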

outcome, inactive:
O=C1CS(=O)(=O)C2(C(=O)N(Cc3ccc(F)cc3)c3ccccc32)N1c1cccc(C(F)(F)F)c1 (stereo unspecified), Cc1ccc(NC(=O)CCCn2c3ccccc3c(=O)c3cc(C)ccc32)c(Br)c1, COc1ccc(CCNC(=O)CCc2cn(Cc3ccc(C)cc3)c3ccccc23)cc1OC, O=C(CSc1nnc(-c2ccc(Cl)cc2)o1)N1CCc2ccccc21, CC(=O)Nc1ccc(S(=O)(=O)Nc2ccc(-c3cn4c(C)csc4n3)cc2)cc1, CCOc1ccc(CNC(=O)c2cc3c(=O)n(Cc4cccs4)ccc3nc2C)cc1, CCN(Cc1ccccc1)C(=O)Cn1c(=O)n(-c2ccc(OC)cc2OC)c(=O)c2c(C)c(C)sc21, CCOc1ccc(NC(=O)c2c(NC(=O)Cc3ccccc3)sc3c2CCCC3)cc1, O=c1n(Cc2cccc(F)c2)c2ccccc2c2nc(-c3ccccc3)nn12, COc1ccc(Cl)cc1NC(=O)C1CCN(c2nnc(C)c3c(C)n(-c4ccccc4)nc23)CC1, Cc1c(CC(=O)N2CCCCC2)c(=O)oc2c(C)c3occ(C(C)(C)C)c3cc12, Cc1ccc(O)c(NC(=O)c2cc(-c3ccc4c(c3)OCO4)on2)c1, Cc1cccc(N2CCN(C(=O)c3ccc(CS(=O)c4cccc(Cl)c4)o3)CC2)c1C (stereo unspecified), CCSc1nnc2c(n1)OC(c1ccc(C)cc1)N(C(C)=O)c1ccccc1-2 (stereo unspecified), COc1ccc(CNC(=O)CCCN2C(=O)CSc3c2c(C)nn3-c2ccccc2)c(OC)c1, Cc1cc(C)c(NS(=O)(=O)c2ccc(-c3cnc(C4CC4)o3)cc2)c(C)c1, COc1cccc(CNC(=O)Cc2csc3ccccc23)c1OC, CCOc1ccc(N(CC)C(=O)C2CCN(S(=O)(=O)c3cccc4nonc34)CC2)cc1, COc1ccc(CCC(=O)NC2CC(=O)N(c3cccc(F)c3)C2)cc1 (stereo unspecified), COc1ccc(NC(=O)c2c(NC(=O)COc3ccccc3)sc3c2CCC(C)C3)cc1 (stereo unspecified), COc1ccc(-c2noc(CCC(=O)Nc3ccc(C(F)(F)F)cc3)n2)cc1

Activity change, negative = inhibition, inactive:
Cc1ccc2oc(C(=O)Nc3ccc(S(=O)(=O)Nc4onc(C)c4C)cc3)cc(=O)c2c1 -16.5%, CCOC(=O)c1c(C)[nH]c(C)c1S(=O)(=O)N1CCC(C(=O)N2CCN(c3cc(C)ccc3C)CC2)CC1 2.67%, CC1CCN(S(=O)(=O)c2ccc3c(c2)N(CC(=O)NCCc2ccc(Cl)cc2)C(=O)CO3)CC1 -2.77%, Cc1c(Cl)cccc1Nc1nc(N)nc(CSc2nc3ccccc3s2)n1 2.19%, O=C1SC(Nc2ccc(Cl)cc2)C(=O)N1Cc1ccccc1 (stereo unspecified) 8.66%, CCCc1cc(=O)n2[nH]c(NCc3ccc(CC)cc3)nc2n1 -4.77%, CCCCNC(=O)C1=CC(c2ccc3c(c2)OCO3)=NS(=O)(=O)N1C 6.43%, COc1cccc(C(=O)NCC(=O)OCc2cc(=O)n3nc(C)sc3n2)c1 6.08%, O=C(CSc1ncc(S(=O)(=O)c2ccc(Cl)cc2)c(=O)[nH]1)Nc1ccc2c(c1)OCCO2 -9.46%, CCCC(=O)Nc1nnc(SCc2cc(=O)c3ccc(C)cc3[nH]2)s1 -19.4%, Cc1ccc(-n2nc(CO)c(C(=O)NCCc3ccccc3)n2)cc1 -7.79%, COc1cccc(-n2c(=O)c3sc4ccccc4c3n(CC(=O)Nc3ccccc3OC)c2=O)c1 -14.5%, Cc1ccc(Cl)cc1N1CCN(C(=O)Cn2ncc3c([nH]c4ccccc43)c2=O)CC1 -0.471%, O=S(=O)(c1ccccc1)c1nnn2c1nc(Nc1ccccc1)c1cc(Cl)ccc12 -3.25%, CCC(Sc1nc2ccncc2[nH]1)C(=O)Nc1ccc(F)cc1 (stereo unspecified) 6.14%, CCOc1ccc(N(C)C(=O)C2CCN(S(=O)(=O)c3ccc4c(c3)CCCN4C(C)=O)CC2)cc1 -2.94%, CCCCOc1nnc(-c2ccc(OCC)cc2)c2ccccc12 -0.0311%, Cc1cc(C)cc(NC(=O)C(NS(=O)(=O)c2cccc3nsnc23)c2ccccc2)c1 (stereo unspecified) 3.33%, Cc1ccc(Cn2cnc3c(oc4ccccc43)c2=O)cc1 12.6%, Cc1ccccc1NC(=O)c1c2c(nc3ccccc13)C(=O)N(C1CCCCC1)C2 27.8%, COc1cc2nc(N3CCN(C(=O)C4CCCO4)CC3)nc(N)c2cc1OC (stereo unspecified) -9.92%, CCc1nc2nc(C)cc(Nc3ccc(Br)cc3F)n2n1 -1.46%, O=C(Nc1onc2c1CCCC2)c1ccc(Cl)cc1 3.49%, Cc1oc2ccc(O)c(CN(C)Cc3ccccc3)c2c1C(=O)Nc1cccc(Cl)c1C -2.94%, CCCCn1c2ccccc2c2nnc(SCC(=O)Nc3ccc(NC(C)=O)cc3)nc21 12%, CCc1c(C)sc(NC(=O)c2cc(-c3ccc(OC)cc3)on2)c1C#N 4.23%, COC(=O)c1cc(S(=O)(=O)N2CCN(c3cccc(C)c3)C(C)C2)c[nH]1 (stereo unspecified) 4.92%, Cc1ccc2c(=O)c(C(=O)c3ccc(F)cc3)cn(CC(=O)NC3CCCCC3)c2n1 6.33%, COc1ccccc1-c1cc(C(F)(F)F)nc(S(=O)(=O)CCCC(=O)Nc2cc(C)ccc2O)n1 -2.02%, CCOc1ccc(-n2c(SCC(=O)NCc3ccco3)nc3c([nH]c4ccccc43)c2=O)cc1 -10.3%, Cc1cccc(-c2nnc3n(CCc4ccccc4)c(=O)c4ccccc4n23)c1 -0.757%, COc1cccc(CNC(=O)c2cc3n(n2)CCCN(Cc2ccc(C)cc2)C3=O)c1OC -2.15%, COc1ccc(-c2nc3ccc(NS(=O)(=O)c4ccccc4)cc3o2)cc1 -3.15%, COc1ccc2c(Sc3ccccc3)c(C(=O)NCc3ccc(OC(C)C)cc3)[nH]c2c1 -6.28%, CN1CCN(c2cccc(Nc3nc4c(-c5ccc(S(C)(=O)=O)cc5)cccn4n3)c2)CC1 -5.08%, COc1ccc(Cl)cc1NC(=O)Cn1c(=O)n(Cc2ccco2)c(=O)c2ccc(C(=O)NC3CCCC3)cc21 13.7%, CCOc1ccc(CNC(=O)c2ccc(-c3nc(CSc4ccc(C)cc4)c(C)o3)cc2)cc1 0.94%, Cc1ccc(C)c(NC(=O)N2CCN(C)c3ncccc32)c1 -9.23%, Cc1ccc(Cn2ccnc2SCC(=O)Nc2ccc3c(c2)OCO3)cc1 -20.7%, Cc1ccc(-n2c3nc(=O)[nH]c(=O)c-3cc3c(Cl)cccc32)cc1 -15%, Cc1ccc(NC(=O)c2sc(-n3nc(C)c(Cc4ccc(Cl)cc4)c3C)nc2C)cc1 2.21%, CN(C)C=NC(=O)c1cc2c(n(-c3ccccc3)c1=O)CC(C)(C)CC2=O 6.71%, Cc1ccc(CN2CCSc3ccc(C(=O)NCCc4ccccc4)cc32)cc1 5.51%, CCOc1ccc(CCNC(=O)CSc2n[nH]c(-c3ccccc3)n2)cc1OCC -0.187%, CCCCOc1ccc(C(C)NC(=O)c2cccc(Nc3nc4ccccc4n4nnnc34)c2)cc1 (stereo unspecified) 0.323%, COc1ccc(CN(C(=O)Nc2cccc(Cl)c2)c2ccccn2)cc1OC 0.523%, CN(C)c1cc2c(cc1NS(=O)(=O)c1ccccc1)n(C)c(=O)n2C 5.26%, COc1cccc(CSc2nc3n(n2)C(c2cccc(F)c2)C(C(=O)Nc2ccccc2C)=C(C)N3)c1 (stereo unspecified) 0.323%, COc1ccc(Cl)cc1NC(=O)CCS(=O)(=O)c1cccc2nonc12 -2.91%, Cc1ccc(-c2[nH]c3ccccc3c2SCCNC(=O)c2ccc(S(=O)(=O)N(C)C)cc2)cc1 19.9%, COCCNC(=O)CCC(=O)N1Cc2cccc(OC)c2Oc2ncccc21 4.97%, Cc1ccc(NC(=O)C(=O)NCC(c2cccnc2)N2CCOCC2)cc1Cl (stereo unspecified) 3.73%, COc1ccc(C)cc1NC(=O)CCc1c(C)nn(-c2ccc(N3CCOCC3)nn2)c1C 60.7%, O=C(Cc1ccc(Cl)cc1)Nc1nnc2n1CCS2 29.3%, Cc1ccc(-n2nc(C)c3c(C)cc(=O)n(CC(=O)N4CCCc5ccccc54)c32)cc1 2.16%, Cc1ccc(NC(=O)c2c(C)oc3ncnc(N4CCCCC4)c23)cc1Cl 9.55%, CCn1cc(S(=O)(=O)c2cccc(Cl)c2)c(=O)c2cc(F)c(N3CCC(C)CC3)cc21 -1.92%, CCc1ccc(NC(=O)Cn2ccn(Cc3ccccc3OC)c(=O)c2=O)cc1 -9.41%, Cc1ccc(C2=Nc3ccc(Cl)cc3OC2)cc1 -1.11%, COc1ccc(NC(=O)C(=O)NCC2(c3ccc(OC)c(OC)c3)CCCC2)cc1 1.82%, O=C(COCc1cc(-c2cccs2)on1)NCc1ccc(Cl)cc1 -9.32%, COc1cc(NC(=O)Cn2nnc(-c3ccc(C(F)(F)F)cc3)n2)c(C(=O)O)cc1OC -0.393%, CCCOC(=O)c1c(NC(=O)C2c3ccccc3Oc3ccccc32)sc2c1CCCC2 1.41%, COc1ccc(NC(=O)CCCSc2nc(-c3ccco3)cc(C(F)(F)F)n2)c(OC)c1 0.693%, COc1cccc(OCc2nc3ccccc3n2Cc2ccccc2C)c1 -1.84%, O=C(Cn1c(=O)oc2cc(S(=O)(=O)NCc3ccccc3)ccc21)Nc1ccc(F)c(Cl)c1 -1.81%, CCC(=O)n1nc(-c2cccnc2)nc1NCc1ccc(F)cc1 3.84%, O=C(NCCC1=CCCCC1)c1ccc2c(=O)n3nc(Nc4ccccc4)sc3nc2c1 1.89%, O=C(Nc1ccccc1C(F)(F)F)c1ccc2oc(=O)c(S(=O)(=O)c3ccc(F)cc3)cc2c1 -7.91%, Cc1ccccc1CNC(=O)CN1C(=O)CSc2ccc(S(=O)(=O)N(C)C)cc21 -9.02%, COCCCNC(=O)c1cn(CCOC)c(=O)c2c1c1ccccc1n2C -21.4%, Cc1ccc(NC(=O)CSc2nnc3[nH]c(=O)cc(-c4ccccc4)n23)cc1Cl -5.39%, COc1ccc(CCNC(=O)Cc2c(C)c3c(cc(C)c4c(C)c(C)oc43)oc2=O)cc1 1.33%, CC(=O)c1ccc(N2CCN(c3ncnc4c3nc3n4CCCC3)CC2)cc1 -1.56%, COc1ccccc1N1CCN(c2ncc3c(n2)CCN(Cc2ccccc2F)C3)CC1 -1.6%
